Results on 2 compounds are retold here after patent US20100273740A1 (priority 2004, published 2010).

One assay concerns varicella zoster virus. The assay can be described thus: microbe, parasite or virus in culture.
Assay [1] has as its system Urbani strain of SARS CoV. In kind it is cell-based. The settings on record: Vero cells.

SMILES strings stand for the structures. Values after ≈ are worked out from the molar mass of the structure shown.

In the case of `CCCCCCCCCCOC(CNC(=O)CCCCCCCCC)COP(=O)([O-])OCC[N+](C)(C)C` (stereo not drawn) [NHCOC9H19 OC9H18CH3 PC, 3-decanamido-2-decyloxypropyl-1-phosphocholine], the “SI = Selectivity Index (IC50 Cell Growth divided by EC50)” value in the assay with varicella zoster virus is on record as 156. Moreover, in the assay on varicella zoster virus (Human alphaherpesvirus 3, Fibroblast, read-out: Effective Conc. (EC50) Against VZV), the half-maximal effective concentration (EC50) is 0.48 µg/mL (≈ 0.872 µM).
On to `CCCCCCCCCCCC(=O)NCC(COP(=O)([O-])OCC[N+](C)(C)C)OCCCC` (stereo not drawn) [NHCOC11H23 OC3H6CH3 PC, 3-dodecanamido-2-butyloxypropyl-1-phosphocholine], for which the “SI = Selectivity Index (IC50 Cell Growth divided by EC50)” value in assay [1] is given as 13.

Usually EC50 stands for the concentration at which the effect is half-maximal.
